Results are given in words; binding and its absence hold for the method and conditions named. For part of these data: In cells and extracts the contact can be indirect. Some binding calls cover weakened binding; strength is not graded here.
How the values were obtained:
[1] = target: Flag-tagged c-JUN 2SA (S63A/S73A) (UniProt P05412); assay: co-IP; Flag-c-JUN wild-type or mutants transiently expressed in HCT116 cells treated with JNKi or additionally with anisomycin for the indicated times; anti-FLAG M2 magnetic beads, 16 h at 4 °C; immunoblot for endogenous TCF4
[2] = target: Flag-tagged c-JUN 2TA (T91A/T93A) (UniProt P05412); assay: as above
[3] = target: Flag-tagged c-JUN 4A (S63A/S73A/T91A/T93A) (UniProt P05412); assay: as above
[4] = target: Flag-tagged c-JUN wild-type (UniProt P05412); assay: as above
[5] = target: Flag-tagged c-JUN wild-type (UniProt P05412); assay: condition: only cells treated with anisomycin until c-JUN was completely phosphorylated; co-IP; as a3, cells treated with anisomycin until c-JUN was completely phosphorylated; anti-FLAG M2 magnetic beads, 16 h at 4 °C; immunoblot for endogenous TCF4
[6] = target: GST-c-JUN TAD 2TA (T91A/T93A, residues 1-151), phosphorylated by JNK1 (human) (UniProt P05412); assay: pull-down; 10 ug GST-c-JUN TAD (unphosphorylated, or phosphorylated by JNK1) on glutathione sepharose beads; purified recombinant MBD3 or TCF4, 3 h at 4 °C; 25 mM Hepes pH 7.5, 100 mM NaCl, 5 mM DTT, 10% glycerol; immunoblot; both purified

Chains of the proteins cited; added tags and fusions are not shown. Lines headed by an entry give the natural chain unless they say otherwise; changes in a name come on top. A line that says so, or that is headed by a name, gives the form on record, which may keep a tag or linker. Residues count along the entry.
UniProt P05412: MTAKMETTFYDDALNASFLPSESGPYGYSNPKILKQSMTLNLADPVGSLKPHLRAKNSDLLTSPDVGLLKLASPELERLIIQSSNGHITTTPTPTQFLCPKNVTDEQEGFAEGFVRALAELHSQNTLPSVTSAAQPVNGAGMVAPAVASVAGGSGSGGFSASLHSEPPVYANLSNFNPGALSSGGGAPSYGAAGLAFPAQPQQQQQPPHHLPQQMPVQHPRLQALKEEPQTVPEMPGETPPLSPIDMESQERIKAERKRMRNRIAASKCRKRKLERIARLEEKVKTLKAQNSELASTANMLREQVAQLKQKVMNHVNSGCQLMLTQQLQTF
GST-c-JUN TAD 2TA (T91A/T93A, residues 1-151), phosphorylated by JNK1 (P05412, form named): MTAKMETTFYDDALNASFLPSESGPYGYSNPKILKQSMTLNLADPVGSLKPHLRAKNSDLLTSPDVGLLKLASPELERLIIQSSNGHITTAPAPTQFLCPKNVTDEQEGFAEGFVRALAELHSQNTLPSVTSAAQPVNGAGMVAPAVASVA
UniProt Q9NQB0: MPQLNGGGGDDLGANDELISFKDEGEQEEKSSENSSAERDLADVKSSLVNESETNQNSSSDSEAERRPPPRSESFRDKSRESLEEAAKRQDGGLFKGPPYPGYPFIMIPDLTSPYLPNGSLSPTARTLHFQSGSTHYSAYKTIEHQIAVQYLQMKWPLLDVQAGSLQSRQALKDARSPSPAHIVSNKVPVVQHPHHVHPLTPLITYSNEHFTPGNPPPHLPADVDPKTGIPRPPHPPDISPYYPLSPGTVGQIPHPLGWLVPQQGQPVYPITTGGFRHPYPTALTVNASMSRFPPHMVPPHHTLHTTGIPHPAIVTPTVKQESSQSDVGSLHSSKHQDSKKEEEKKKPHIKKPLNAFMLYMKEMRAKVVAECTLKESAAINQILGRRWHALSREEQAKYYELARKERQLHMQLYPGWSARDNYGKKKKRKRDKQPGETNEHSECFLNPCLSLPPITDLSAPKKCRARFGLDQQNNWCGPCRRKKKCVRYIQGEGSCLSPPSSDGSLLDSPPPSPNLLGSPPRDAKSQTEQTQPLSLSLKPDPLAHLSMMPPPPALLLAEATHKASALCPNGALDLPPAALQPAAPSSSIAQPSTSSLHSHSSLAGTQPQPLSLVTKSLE

Substance | binding [1] | binding [2] | binding [3] | binding [4] | binding [5] | binding [6]
TCF4 (TCF7L2), endogenous in HCT116 cell extracts (from UniProt Q9NQB0 1-619) | no binding | binds | no binding | binds | no binding | –
recombinant human full-length TCF4 (residues 1-619) (from UniProt Q9NQB0 1-619) | – | – | – | – | – | binds

From article PMC9576782
